# According to PubChem BioAssay AID1346428 (National Center for Advancing Translational Sciences (NCATS), 2018):
# “And” between values parts separate entries of the source, which are not always exact repeats. Equal values may be shown once. About 1,200 (2.5%) of roughly 48,000 compounds were called active. Roughly 2% stayed inconclusive and do not appear here.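 The calls were made as follows: active = activation of at least 60% and not above a set upper limit (about 1 call in 100 departs from these limits); inconclusive = activation of 40% to 60%, or above that upper limit; inactive = activation under 40%.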 Some of the results follow.
# Biological target: Probable G-protein coupled receptor 32 (Homo sapiens) (UniProt O75388)
# UniProt O75388, sequence (O75388 whole entry, looked up): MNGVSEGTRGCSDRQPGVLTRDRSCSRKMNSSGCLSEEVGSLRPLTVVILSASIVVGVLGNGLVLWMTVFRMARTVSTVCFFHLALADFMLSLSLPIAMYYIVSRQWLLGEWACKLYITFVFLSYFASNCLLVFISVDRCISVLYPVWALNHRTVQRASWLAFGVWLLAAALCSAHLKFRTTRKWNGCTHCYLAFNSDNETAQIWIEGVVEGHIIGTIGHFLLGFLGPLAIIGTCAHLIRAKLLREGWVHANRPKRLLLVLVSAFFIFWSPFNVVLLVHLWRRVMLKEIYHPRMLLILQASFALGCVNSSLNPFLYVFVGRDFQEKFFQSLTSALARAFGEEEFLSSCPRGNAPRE
# Test: qHTS for Agonists of Human Resolvin D1 Receptor DRV1; also: 0% is about no effect
# Details: CHO-K1 GPR32 beta-arrestin PathHunter luminescence, 90 min; at 76.9 µM; hits give high values; zero percent set by DMSO-only wells
# How it was run: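 Engineered CHO-K1 line co-expressing GPR32-ProLink and EA-beta-arrestin. Compound treatment lasted 90 min at 37 °C. Luminescence was recorded after 1 h with substrate at ambient temperature, relative to DMSO basal wells.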
row,SMILES,activation
1,Cc1oc(-c2ccccc2F)nc1CS(=O)CC(=O)NC(C)C (centres undefined),inactive: 3.02%
2,CC/C=C(\C(=O)N[C@@H]1C(=O)N2C(C(=O)OCOC(=O)C(C)(C)C)=C(COC(N)=O)CS[C@H]12)c1csc(N)n1,inactive: 14.1% and inactive: -24.3%
3,Cc1cccc(Cn2c(CNS(=O)(=O)c3ccc(C(C)C)cc3)nc3cccnc32)c1,inactive: -26.3%
4,COc1ccc(OC)c(NC(=O)c2cccc3c2C(=O)N(C2CCCCC2)C3)c1,inactive: -2.72%
5,CCc1ccc(NC(=O)CC2C(=O)NCCN2C(=O)c2ccc(F)cc2)cc1 (centres undefined),inactive: -11.8%
6,COc1ccc(S(=O)(=O)c2c(Nc3ccccc3F)sc(C(=O)c3cccc(OC)c3)c2N)cc1,inactive: -45.1%
7,CCc1ccc(NC(=O)NCCc2c(C)nn(C)c2C)cc1,inactive: -3.06%
8,CSc1ccc(C2C(C(=O)Nc3ccccc3)=C(C)Nc3nc4ccccc4n32)cc1 (centres undefined),inactive: 11.1%
9,Cc1cccc(NC(=O)CSc2nnc(NC(=O)Nc3ccccc3)s2)c1C,inactive: -4.41%
10,COc1cccc(C2CC(=O)Nc3c2ccc(C)c3C)c1OC (centres undefined),inactive: 30.4%
11,CCOc1ccccc1CNC(=O)c1ccc(CS(=O)Cc2cccc(Cl)c2)o1 (centres undefined),inactive: -19.6%
12,CCOCCOC(=O)/C=C/c1ccc(OC)cc1,inactive: 0.142%
13,CCCC(CCC)(C(=O)OCC)C(=O)OCC,inactive: -1.55%
14,Cc1ccccc1CNC(=O)C(=O)NCC(c1ccco1)S(=O)(=O)c1cccs1 (centres undefined),inactive: -0.721%
15,NC[C@H]1O[C@H](O[C@H]2[C@H](O)[C@@H](O[C@H]3O[C@H](CO)[C@@H](O)[C@H](N)[C@H]3O)[C@H](N)C[C@@H]2N)[C@H](N)[C@@H](O)[C@@H]1O,inactive: -0.321%
16,Cc1ccc(NC(=O)CSc2ncc(-c3ccccc3)[nH]2)cc1,inactive: -10.8%
17,COc1cccc(NC(=O)CSc2nnc(-c3cccc(OC)c3)o2)c1,active: 77.8%
18,CCCCNC(=O)CSc1nc2nc(C)c(Cc3c(F)cccc3Cl)c(C)n2n1,inactive: 18.9%
19,CCC(=O)N1CCc2cc(CNC(=O)c3ccccc3C)ccc21,inactive: -13.6%
20,CCOC(=O)c1c(C)[nH]c(C)c1S(=O)(=O)N1CCCC(C(=O)Nc2cc(C)ccc2C)C1 (centres undefined),inactive: 4.24%
21,O=C(Nc1ccc2nc(SCC(=O)N3CCc4ccccc43)sc2c1)c1ccccc1,inactive: -11.2%

row,SMILES,activation
1,Cc1ccc2sc(-c3ccc(N)cc3)nc2c1,inactive: -19.9%
2,CCc1ccc(-n2c(=O)c3sc4ccccc4c3n(CC(=O)N(CC)Cc3ccccc3)c2=O)cc1,inactive: 2.92%
3,CCNC(=O)NCc1cccc(Cl)c1,inactive: -19.9%
4,Cc1ccc(-c2nnc(Nc3ccccc3O)c3ccccc23)cc1,inactive: 5.76%
5,Cc1ccc(Cl)cc1N1CCN(C(=O)c2cnn(C)c2C2CCN(C(=O)OC(C)(C)C)CC2)CC1,inactive: 4.68%
6,O=C(Nc1cc2c(cc1C(=O)c1ccccc1Br)OCCO2)c1ccccc1,inactive: -14.1%
7,O=C(NC1CC(=O)N(c2cccc(F)c2)C1)c1ccc2c(c1)OCO2 (centres undefined),inactive: -4.01%
8,O=C(C1CCC(Cn2c(=O)c3sccc3n(Cc3ccccc3)c2=O)CC1)N1CCOCC1 (centres undefined),inactive: -5.24%
9,Cc1ccc(OCC(=O)Nc2ccccc2C(=O)OCc2cc(=O)n3ccsc3n2)cc1,inactive: -13.9%
10,CC(=O)c1ccc(NC(=O)COc2ccccc2-c2nc(-c3ccc(C)cc3)no2)cc1,inactive: -0.896%
11,O=C(Nc1ccccc1F)c1ccc(Cn2nc(N3CCN(c4ccccc4)CC3)ccc2=O)o1,active: 90.1%
12,COc1cc(OC)c(NC(=O)N2CCc3c([nH]c4ccccc34)C2c2ccccc2F)cc1Cl (centres undefined),inactive: -19.8%
13,Cc1cc(C)c(NC(=O)CN2C(=O)c3cccnc3Sc3ccccc32)c(C)c1,inactive: -8.59%
14,O=C(CCC(=O)N1CC2CCCN2c2ccccc21)NCc1ccc(F)cc1 (centres undefined),inactive: -38.4%
15,CCc1cc(C(=O)Nc2c(C)nn(Cc3ccccc3Cl)c2C)no1,inactive: 25.1%
16,CC(=O)O[C@]1(C(C)=O)CC[C@H]2[C@@H]3C=C(C)C4=CC(=O)CC[C@]4(C)[C@H]3CC[C@@]21C,inactive: -36%
17,CC(C)CC(C(=O)NCC1CCN(Cc2ccc(F)cc2)CC1)N1Cc2ccccc2C1=O (centres undefined),inactive: -16.8%
18,COc1ccc(NC(=O)C2CCC(CNS(=O)(=O)c3ccc(Br)s3)CC2)c(OC)c1 (centres undefined),inactive: 33.3%
19,CC(=O)c1ccc(NC(=O)CCc2c(C)nn(-c3ccc4nnc(C)n4n3)c2C)cc1,inactive: -0.69%
20,CCc1ccc(NC(=O)Cn2cc(S(=O)(=O)c3ccc(F)cc3)c(=O)c3cc(OC)ccc32)cc1,inactive: -13.1%
21,COc1cc(NC(=O)N2CCC(CN3CCCCCC3)CC2)cc(OC)c1OC,inactive: -6%

row,SMILES,activation
1,Cc1ccccc1C(=O)N1c2ncnn2C2(CCCCC2)[C@@H]2CCCC[C@@H]21,inactive: -12.5%
2,CCc1nc(-c2ccc(C)c(S(=O)(=O)N3CCN(c4ccc(C(C)=O)cc4)CC3)c2)no1,inactive: -4.4%
3,O=C(CSc1nc(-c2ccccc2)nc2cc(=O)[nH]n12)Nc1ccccc1,inactive: 6.01%
4,O=C(NCCn1cc(SCc2ccc(F)cc2)c2ccccc21)c1cccs1,inactive: 34.3%
5,CCn1cc(C(=O)N2CCN(c3cc(Cl)ccc3C)CC2)c(=O)c2cc(S(=O)(=O)N3CCCCC3)ccc21,inactive: -0.472%
6,Cc1ccccc1Cn1c(=O)n(CCC(=O)NCc2ccco2)c(=O)c2sccc21,inactive: -17.4%
7,COC(=O)C1=C(C)N(C(C)C)C(=O)C1(NC(=O)c1ccc(C(C)(C)C)cc1)C(F)(F)F (centres undefined),inactive: -7.85%
8,CC(C)Nc1nc2c(-c3cccc(Br)c3)nnn2c2ccccc12,inactive: 32.9%
9,CCOc1ccc(C(=O)Nc2ccc(-n3nncc3-c3ccc(OC)cc3)cc2)cc1,inactive: -10.8%
10,Cc1ccc(NC(=O)CSc2nc(-c3ccco3)nc3cc(=O)[nH]n23)cc1,inactive: -3.71%
11,CCCc1cc(=O)[nH]c(Nc2ccc(OCC)cc2)n1,inactive: -4.36%
12,Cn1nnnc1SCCNCc1ccc(Cl)c(Cl)c1,inactive: -5.94%
13,COc1ccccc1NC(=O)C1=C(C)Nc2nc(-c3ccco3)nn2C1c1ccccc1F (centres undefined),inactive: -14.8%
14,Cc1ccc(Cn2c(C)c3cnn(CC(=O)NCCc4ccc(Cl)cc4)c(=O)c3c2C)cc1,inactive: -27.2%
15,Cc1cccc(S(=O)(=O)c2cn(C)c3cc(N4CCN(c5ccccc5)CC4)c(F)cc3c2=O)c1,inactive: -0.563%
16,COc1cccc(CCNC(=O)c2cnc3sc(N4CCOCC4)nn3c2=O)c1,inactive: -9.91%
17,CNC(=O)c1cnc2sc(N3CCCCCC3)nn2c1=O,inactive: 3.27%
18,CCOc1ccc(N(CC)C(=O)CCc2nc(-c3ccccc3F)no2)cc1,inactive: -20.4%
19,COc1ccc(C(=O)Nc2nc3ccccc3n2CCOc2ccc(Cl)cc2)cc1,inactive: -25.5%
20,O=C(NCCc1ccccc1)c1ccc(Cn2c(SCc3ccccc3)nc3cccnc32)cc1,inactive: -6.98%
21,Cc1cccn2c(=O)cc(CSc3nnc(NC(=O)c4ccc(F)cc4)s3)nc12,inactive: -9.59%

row,SMILES,activation
1,CCC(Sc1nnc(-c2ccc(OC)c(OC)c2)c(-c2ccc(OC)c(OC)c2)n1)C(=O)NC1CCCC1 (centres undefined),inactive: -38.9%
2,COc1cccc(NC(=O)Cn2nc(C)c3c(C)n(-c4ccccc4)nc3c2=O)c1,inactive: -16.6%
3,CCCOc1ccc(Oc2nc(NCC(C)C)nc(N(C)C)n2)nn1,inactive: -10.1%
4,CCc1ccc(NC(=O)C(Cc2ccccc2)NS(=O)(=O)c2ccc3c(c2)c(=O)n(C)c(=O)n3C)cc1 (centres undefined),inactive: -1.99%
5,Cc1nc(-n2nc(C)c(CCC(C)C)c2C)sc1C(=O)Nc1cccc(Cl)c1,inactive: -3.23%
6,CCC(C(=O)Nc1ccc(C)c(Cl)c1)n1c(=O)c(-c2ccccc2NC(C)=O)nc2ccccc21 (centres undefined),inactive: -14.5%
7,O=C1C(O)=C(O)C(=O)C(O)=C1O,inactive: 6.17%
8,Clc1ccc(NCc2nc3ccccc3n2CCOc2ccccc2)cc1,inactive: 8.47%
9,COc1ccc(Cl)cc1NC(=O)Cn1c(=O)c2ccccc2n2nncc12,inactive: -3.35%
10,Cc1cccc(C)c1NC(=O)c1sc(-n2nc(C)c(Cc3ccc4c(c3)OCO4)c2C)nc1C,inactive: -0.313%
11,Cc1ccc(NC(=O)Cn2nc3c(cc2=O)CCCC3)cc1Cl,inactive: -3.74%
12,Cc1nccn1CC1CCc2c(c3ccccc3n2C)C1=O (centres undefined),inactive: 28.1%
13,NC(=O)c1cc[n+](CC2=C(C(=O)[O-])N3C(=O)[C@@H](NC(=O)Cc4cccs4)[C@H]3SC2)cc1,inactive: 2.42%
14,CCN(C(=O)CSc1nc2ccccc2nc1Cc1ccc(F)cc1)c1cccc(C)c1,inactive: -37.7%
15,Cc1cc(C)cc(NC(=O)c2c(C)oc3nc(C)nc(N4CCCC4)c23)c1,inactive: -17.4%
16,CC(C)CCn1c(=O)c2cccnc2n(CC(=O)Nc2ccccc2F)c1=O,inactive: -6.07%
17,COCCc1ccc(OCC2CO2)cc1 (centres undefined),inactive: -7.07%
18,Cn1c2ccccc2c2cnn(CC(=O)Nc3ccccc3F)c(=O)c21,inactive: -2.46%
19,COc1cccc(Cn2c(-c3nonc3NC(C)=O)nc3ccccc32)c1,inactive: -23.9%
20,COc1cccc(-c2noc(-c3cc(C(C)C)[nH]n3)n2)c1OC,inactive: -0.52%
21,CCOc1ccc(Nc2nn(-c3ccc(OC(F)(F)F)cc3)nc2C(C)=O)cc1,inactive: -3.62%
